Laboratory results from PubChem BioAssay AID1948 (National Center for Advancing Translational Sciences (NCATS), 2009).
“And” between values parts separate entries of the source, which are not always exact repeats. Equal entries are not always repeated. The whole screen tested about 110,000 compounds, of which about 20 (0.02%) were called active. The inconclusive results got no clear call from the source; some entries with a clear call stand among them for comparison. Calls follow the shape of the dose curve; as a rule, active = well fitted activation curve with a large enough effect; inconclusive = small, poorly fitted or top-dose-only effect; inactive = no such curve, though single readings can be large or run the other way. Where the call is inconclusive, the potency comes from a doubtful curve fit.

Assay: qHTS Assay for Compounds that Induce Erasure of Genomic Imprints;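 as to activity change, positive = activation: 0% = negative control wells on the plate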
Conditions: mouse ES Peg3-LacZ reporter, beta-gal luminescence, 40 h; activity change, positive = activation: at 10.9 µM (top of the series) unless noted
How it was run: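 Gelatin-coated wells received 300 freshly trypsinized female ES cells with a Peg3LacZ-Neo reporter on the maternal allele, then incubated 40 hours at 37C. BetaGlo was added for 5 minutes at room temperature before a single luminescence read.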
Potency is read from the fitted curve at half-maximal effect; tags tell the direction and shape of the fitted curve.

Compound | activity change, positive = activation | Potency
O=C(COc1ccc(Cl)cc1)Nc1nnc2n1CCS2 | inconclusive: 38.1% [activator] | 
N/C(CC(=O)Nc1cccc(C(F)(F)F)c1)=N/O |  | inconclusive: 5.01 µM [activator, single point]
CC(=O)c1ccc(Oc2nc(C)nc3c2oc2ccccc23)cc1 | inconclusive: 36.8% [activator] | 
CC(C)NCC(O)COc1ccc(COCCOC(C)C)cc1 (configuration not stated) |  | inconclusive: 31.6 µM [activator, single point]
Cc1ccc(CNC(=O)C2CCN(S(=O)(=O)c3cc(-c4noc(C)n4)ccc3C)CC2)cc1 |  | inactive
CCc1nn(CCCC(=O)NCc2cc(Br)ccc2OC)c(=O)c2cc3occc3n12 | inconclusive: 77% [activator] | 
Cc1ccc(S(=O)(=O)c2cn(CC(=O)Nc3ccc4c(c3)OCO4)c3ccccc3c2=O)cc1C | inconclusive: 45.1% [activator] | 
CC(C)(C)C(=O)Nc1ccc2nc(SCC(=O)N3CCc4ccccc43)sc2c1 |  | inactive
CC(C)n1c2ccccc2c2nc3ccccc3nc21 |  | inactive
COc1ccccc1NC(=O)CSc1oc(-c2ccccc2)nc1S(=O)(=O)c1ccccc1 |  | inactive
CCOc1ccc(-n2ccnc2SCC(=O)Nc2ccc3c(c2)OCO3)cc1 | inconclusive: 36.1% [activator] | 
CCc1nnc(NC(=O)c2ccc(S(=O)(=O)N(CC)CC)cc2)s1 |  | inactive
O=c1oc2ccccc2c2c1ncn2-c1ccccc1 |  | inconclusive: 5.01 µM [activator, single point]
CCc1cccc(C)c1NC(=O)c1cc(S(=O)(=O)N2CCCCCC2)cn1C | inconclusive: 32.6% [activator] | 
CCOc1ccc(Nc2c3c(nc4ncnn24)CC(C)CC3)cc1 (configuration not stated) |  | inconclusive: 5.01 µM [activator, single point]
Cc1sc2nc(CSc3nc4ccccc4c(=O)n3CCCN3CCOCC3)[nH]c(=O)c2c1C |  | inactive
Cc1cccn2c(=O)c3cc(C(=O)N4CCCc5ccccc54)n(C)c3nc12 |  | inconclusive: 3.98 µM [activator, single point]
Nn1c(COc2ccccc2)nnc1SC(F)F |  | active: 3.98 µM
Cc1cc(C(=O)Nc2c(F)cc(F)cc2Br)no1 |  | inconclusive: 5.01 µM [activator, single point]
Cn1c(SCC(=O)c2ccccc2)nc2cccnc21 |  | inactive
Cc1ccc(Cn2c(CN3CCN(C(=O)c4ccco4)CC3)nc3c2c(=O)n(C)c(=O)n3C)cc1 |  | inconclusive: 0.0126 µM [activator, full curve, poor fit]
Cc1nc2cnc(N(C)C)nc2n(C2CC2)c1=O |  | inconclusive: 0.1 µM [activator, full curve, poor fit]
COc1ccc(N2CC(NC(=O)C3CCCCC3)CC2=O)cc1 (configuration not stated) | inconclusive: 52.2% [activator] | 
Cc1ccc(-n2c(=O)c(C#N)cc3c(=O)n4ccccc4nc32)cc1 |  | inactive
CCOCCCN(Cc1ccco1)C(=O)c1cc2c(s1)-c1c(C)cccc1OC2 | inconclusive: 40.3% [activator] | 
COc1ccc(-c2nnc3sc(-c4cccs4)nn23)cc1OC |  | inactive

Compound | activity change, positive = activation | Potency
CC1CCCC(NC(=O)C2CCN(S(=O)(=O)N3CCOCC3)CC2)C1C (configuration not stated) |  | inconclusive: 20 µM [activator, single point]
Cc1ccc(NC(=O)c2c(C)cc(C)nc2SCC(=O)Nc2ccc(Br)cc2)cc1 | inconclusive: 48.5% [activator] | 
COc1ccc(OCC(=O)Nc2ccc3c(c2)nc(CCN2CCOCC2)n3C)cc1 |  | inactive
c1ccc(CNc2cc(-c3cccnc3)ncn2)cc1 |  | inconclusive: 31.6 µM [activator, single point]
Cc1nn(-c2ccccc2)c2sc(C(=O)N(CC(=O)NC(C)(C)C)Cc3ccco3)cc12 |  | inactive
COc1ccccc1-c1nc(NCCc2cnc[nH]2)c2ccccc2n1 |  | inconclusive: 31.6 µM [activator, single point]
CC1CCCN(C(=O)c2cc3ccc4cccnc4c3[nH]2)C1 (configuration not stated) |  | inactive
COc1ccc(CNc2ncnc3ccc(-c4ccc(N(C)C)cc4)cc23)c(OC)c1 |  | inactive
CCOC(=O)Cc1ccc(NC(=O)Nc2c[nH]c(=O)[nH]c2=O)cc1 | inconclusive: 40% [activator] | 
CCC(=O)N1CCCc2cc(S(=O)(=O)N3CCN(c4ncccn4)CC3)ccc21 |  | inactive
CC(C)(C)C(=O)Nc1ccc(-c2nc3ccc(NC(=O)C(C)(C)C)cc3[nH]2)cc1 |  | inactive
Oc1ccc(Cl)cc1C1=Nc2ccccc2N=C(c2ccccc2)C1 | inconclusive: 35.5% [activator] | 
COc1cccc(NC(=O)CN2C(=O)c3cccc4cccc2c34)c1 | inconclusive: 30.5% [activator] | 
O=C(Cn1ccnc1[N+](=O)[O-])NCCO |  | inconclusive: 31.6 µM [activator, single point]
CC(=O)N1CCc2cc(Br)cc(S(=O)(=O)CCC(=O)N3CCN(c4ccc(F)cc4)CC3)c21 |  | inactive
CS(=O)(=O)c1ccc2nc(NC(=O)CS(=O)(=O)c3ccc(Cl)cc3)sc2c1 | inconclusive: 32.4% [activator] | 
Brc1ccc(CSc2ncn[nH]2)cc1 |  | inactive
COc1ccc(-c2noc(C3CCCN(C(=O)CCc4ccccc4)C3)n2)cc1 (configuration not stated) |  | inactive
COC(=O)c1sc(-c2ccccc2)cc1NC(=O)c1cccc(F)c1 | inconclusive: 32.7% [activator] | 
CCCn1c(SCC(=O)Nc2sc(C)c(C)c2C(=O)OC)nc2c1c(=O)n(C)c(=O)n2C |  | inactive
CC(=O)NCCNc1nc(-c2cccc(NS(C)(=O)=O)c2)nc2ccccc12 |  | inconclusive: 25.1 µM [activator, single point]
Cc1ccc(S(=O)(=O)N2CCC(Oc3ccc(-n4cnnn4)cc3)CC2)cc1 |  | inactive
O=c1cnc2cnc(Nc3ccccc3)nc2n1C1CC1 |  | inconclusive: 31.6 µM [activator, single point]
CCN(CC)S(=O)(=O)c1ccc2c(c1)N(CC(=O)Nc1c(C)cccc1C)C(=O)CO2 | inconclusive: 32.6% [activator] | 
O=S(=O)(c1ccc(F)cc1)N1CCN(c2ncnc3c2cnn3-c2ccccc2)CC1 |  | inconclusive: 31.6 µM [activator, single point]
Cc1ccc(Cn2c(=O)n(CCCCC(=O)NCCc3ccc(Cl)cc3)c(=O)c3ccccc32)cc1 | inconclusive: 35.3% [activator] | 

Compound | activity change, positive = activation | Potency
Cc1cc(C)cc(OCC(=O)NCC(c2ccc(Cl)cc2)N2CCCCC2)c1 (configuration not stated) | inconclusive: 31.4% [activator] | 
COc1cc(NC(=O)Cn2c(=O)n(Cc3ccccc3OC)c(=O)c3cccnc32)cc(OC)c1 | inconclusive: 40.2% [activator] | 
CCOC(=O)CC(Nc1nc(N2CCOCC2)nc(N2CCOCC2)n1)c1ccccc1Cl (configuration not stated) |  | inconclusive: 31.6 µM [activator, single point]
CC1CN(C(=O)N2CCC(C(=O)NCCCc3ccccc3)CC2)c2cc(Cl)ccc2O1 (configuration not stated) | inconclusive: 30.6% [activator] | 
CC1CCN(S(=O)(=O)c2ccc3c(c2)CCN3C(=O)Nc2ccccc2Br)CC1 |  | inactive
Cc1noc(C)c1-c1cc(NCc2cccnc2)ncn1 |  | inconclusive: 5.01 µM [activator, single point]
CCC(C)(C(=O)NC1CCCC1)N(C(=O)CNC(C)=O)c1ccccc1 (configuration not stated) |  | inconclusive: 3.16 µM [activator, single point]
C=C(C)C(=O)OC |  | inactive
O=C(NCc1ccc2c(c1)OCO2)Oc1ccccc1 |  | inconclusive: 3.98 µM [activator, single point]
O=C(O)CCNc1ccccc1C(=O)O |  | inconclusive: 0.1 µM [activator, single point]
CCOC(=O)c1cnc(-n2nc(C)cc2C)nc1NC1CCCCC1 |  | inconclusive: 3.16 µM [activator, single point]
COc1ccc(CCC(=O)NC2CC(=O)N(c3ccc(OC)cc3)C2)cc1 (configuration not stated) | inconclusive: 41.2% [activator] | 
Cn1c(=O)cc(SCC(=O)N2CCN(c3ccccc3F)CC2)c2ccccc21 | inconclusive: 40.5% [activator] | 
O=c1c(-c2ccccc2)nc2cnc(N3CCOCC3)nc2n1C1CC1 |  | inconclusive: 5.01 µM [activator, single point]
CN(Cc1ccco1)c1cc(-c2cccc(C#N)c2)ncn1 |  | inactive
CCc1nnc(NC(=O)CSc2nc3c(cc2C#N)CCC3)s1 |  | inactive
CCCCn1nc(NC(=O)c2cccc(Cl)c2)c2cc3cccc(C)c3nc21 | inconclusive: 61.7% [activator] | 
COc1ccccc1Cn1c(CNS(=O)(=O)c2ccc(C(C)C)cc2)nc2cccnc21 | inconclusive: 31.7% [activator] | 
COc1ccccc1-c1nc(NCCNC(C)=O)c2ccccc2n1 |  | inconclusive: 0.794 µM [activator, full curve]
Cc1cccc(-n2c(=O)c3c(c4cc(C)ccc4n3C)n(CC(=O)N3CCCC3)c2=O)c1 |  | inactive
Cc1cccc(C)c1OCCCn1c(CCNC(=O)C2CCCCC2)nc2ccccc21 |  | inactive
Cc1ccccc1-c1nc2cc(N)ccc2o1 |  | inactive
Cc1c(C(=O)N(C)C2CCCCC2)sc2nc3ccc(N)cc3n12 |  | inconclusive: 35.5 µM [activator, single point]
COc1ccc(Cn2c(CCC(=O)Nc3cc(OC)c(OC)c(OC)c3)nc3cccnc32)cc1 | inconclusive: 38% [activator] | 
CC(=O)Oc1cc(OC(C)=O)c2c(c1)OC(c1ccc(OC(C)=O)c(OC(C)=O)c1)C(OC(C)=O)C2 (configuration not stated) |  | inconclusive: 5.01 µM [activator, single point] and inconclusive: 3.16 µM [activator, single point]
